# Values joined by “and” are separate entries in the source; they are usually repeats but may differ in a detail not shown here. Equal entries are not always repeated. Inconclusive results, whose numbers are uncertain, are shown with a selection of clear calls. For some of these results: A potency beside an inconclusive call is a rough fit, not a confirmed value. Active and inactive are the calls of the source. Unless noted, the call rests on the fitted dose curve; in most records, active means well fitted curve in the direction sought with a large enough effect in the repeat runs; inconclusive means weak or mixed curves; inactive means no such curve, though single readings can be large; an effect the other way counts as inactive or inconclusive.
# Tests used:
# [1] = qHTS assay to identify small molecule agonists of the constitutive androstane receptor (CAR) signaling pathway - cell viability counter screen (AID 1224836); further: nearly all actives have a fitted effect of over 45% in size; further: potency means the concentration at half of the fitted maximal effect
# In short: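 Multiplexed viability check: HepG2-CYP2B6-hCAR cells, 15-point compound dosing, 0.75 uM PK11195 final, 23 h at 37 C, CellTiter-Fluor fluorescence.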
# [2] = target: Nuclear receptor subfamily 1 group I member 3 (Homo sapiens) (UniProt Q14994); test: qHTS assay to identify small molecule antagonists of the constitutive androstane receptor (CAR) signaling pathway (AID 1224838); further: potency means the concentration at half of the fitted maximal effect; nearly all actives have a fitted effect of over 40% in size
# UniProt Q14994, sequence (Q14994 whole entry, looked up): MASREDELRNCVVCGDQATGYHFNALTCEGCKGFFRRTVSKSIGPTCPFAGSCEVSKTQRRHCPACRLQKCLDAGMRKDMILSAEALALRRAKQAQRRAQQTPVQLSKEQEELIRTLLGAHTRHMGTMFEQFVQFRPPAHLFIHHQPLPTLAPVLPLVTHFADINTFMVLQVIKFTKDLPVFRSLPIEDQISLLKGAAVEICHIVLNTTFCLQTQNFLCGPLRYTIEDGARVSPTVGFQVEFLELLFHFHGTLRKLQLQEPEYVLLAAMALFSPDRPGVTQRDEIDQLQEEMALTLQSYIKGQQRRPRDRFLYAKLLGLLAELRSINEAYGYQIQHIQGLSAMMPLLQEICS
# In short: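 HepG2 cells stably carrying hCAR and a CYP2B6-2.2kb luciferase reporter, seeded 4 hrs before compound (15 concentrations). Stimulated with 50 nM CITCO for 24 hr at 37 C. ONE-Glo luminescence read after 30 min at room temperature.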
# [3] = qHTS assay to identify small molecule agonists of the hypoxia (HIF-1) signaling pathway - cell viability counter screen (AID 1224844; calls by dose curve; further: potency means the concentration at half of the fitted maximal effect; nearly all actives have a fitted effect of over 50% in size)
# In short: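 HRE-bla ME-180 cells, 2,000/well in 0.5% dialyzed FBS medium, treated 17 h at 37C with compounds. Viability read in the same wells as the bla reporter, by CellTiter-Glo luminescence after 30 min at room temperature.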
# [4] = qHTS assay to identify small molecule agonists of H2AX (AID 1224845; active means well fitted activation curve with a large enough effect in the signal ratio in the repeat runs, not every such curve was filed as active; inconclusive means weak or mixed curves; the % refers to the signal ratio; further: potency means the concentration at half of the fitted maximal effect; on activation (H2AX phosphorylation): on the % scale 0 is the no-effect control and ±100 the full control effect); conditions: CHO-K1 phospho-H2AX Ser139 HTRF, 3 h; activation (H2AX phosphorylation): at 154 µM (top of the series) unless noted
# In short: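 Phospho-H2AX Ser139 measured by HTRF (ex 320 nm; em 665 and 620 nm) after 24 hr antibody incubation. Compounds, 15 concentrations, 0.76% DMSO, were applied to CHO-K1 cells for 3hr at 37C before lysis.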
# [5] = qHTS assay to identify small molecule agonists of H2AX - cell viability counter screen (AID 1224847; calls by dose curve; further: potency means the concentration at half of the fitted maximal effect; nearly all actives have a fitted effect of over 30% in size)
# In short: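 After overnight plating of 1000 CHO-K1 cells per well, a 15-concentration compound series was applied for 3 hr at 37C. Luminescence from CellTiter-Glo, read following 30 min at room temperature, reflected cell viability.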
# [6] = qHTS assay to identify small molecule antagonists of the estrogen related receptor (ERR) signaling pathway from Tox21 library (AID 1224848); further: potency means the concentration at half of the fitted maximal effect; nearly all actives have a fitted effect of over 50% in size
# In short: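 Antagonist-mode screen of the Tox21 10K library in an NTP-provided ERR reporter cell line; 18 h compound exposure at 37 C, luminescence measured with ONE-Glo.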
# [7] = qHTS RealTime-Glo MT Cell Viability Assay in HepG2 cells - 24 hour (AID 1224867); further: potency means the concentration at half of the fitted maximal effect; nearly all actives have a fitted effect of over 50% in size
# In short: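 Tox21 10K library screened in qHTS format on HepG2 cells carrying RealTime-Glo reagents. Compounds were added after a 5 h preincubation, and the luminescent signal from continuous culture was measured repeatedly during 40 h treatment.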
# [8] = qHTS assay to identify small molecule antagonists of the constitutive androstane receptor (CAR) signaling pathway - cell viability counter screen (AID 1224837); further: potency means the concentration at half of the fitted maximal effect; nearly all actives have a fitted effect of over 45% in size
# In short: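 HepG2 cells stably carrying hCAR and CYP2B6-2.2kb reporter, stimulated with 50 nM CITCO and compounds at 15 concentrations for 23 h at 37 C. Viability measured by CellTiter-Fluor fluorescence.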
# [9] = target: Thyrotropin receptor (Homo sapiens) (UniProt P16473); test: qHTS assay to identify small molecule agonists of the thyroid stimulating hormone receptor (TSHR) signaling pathway (AID 1224843; calls by dose curve; further: on the % scale 0 is the no-effect control and ±100 the full control effect; nearly all actives have a fitted effect of over 45% in size); conditions: TSHR-HEK293 cells, cAMP HTRF, agonist mode, 30 min; activation: at 92.4 µM (top of the series) unless noted
# UniProt P16473, sequence (P16473 whole entry, looked up): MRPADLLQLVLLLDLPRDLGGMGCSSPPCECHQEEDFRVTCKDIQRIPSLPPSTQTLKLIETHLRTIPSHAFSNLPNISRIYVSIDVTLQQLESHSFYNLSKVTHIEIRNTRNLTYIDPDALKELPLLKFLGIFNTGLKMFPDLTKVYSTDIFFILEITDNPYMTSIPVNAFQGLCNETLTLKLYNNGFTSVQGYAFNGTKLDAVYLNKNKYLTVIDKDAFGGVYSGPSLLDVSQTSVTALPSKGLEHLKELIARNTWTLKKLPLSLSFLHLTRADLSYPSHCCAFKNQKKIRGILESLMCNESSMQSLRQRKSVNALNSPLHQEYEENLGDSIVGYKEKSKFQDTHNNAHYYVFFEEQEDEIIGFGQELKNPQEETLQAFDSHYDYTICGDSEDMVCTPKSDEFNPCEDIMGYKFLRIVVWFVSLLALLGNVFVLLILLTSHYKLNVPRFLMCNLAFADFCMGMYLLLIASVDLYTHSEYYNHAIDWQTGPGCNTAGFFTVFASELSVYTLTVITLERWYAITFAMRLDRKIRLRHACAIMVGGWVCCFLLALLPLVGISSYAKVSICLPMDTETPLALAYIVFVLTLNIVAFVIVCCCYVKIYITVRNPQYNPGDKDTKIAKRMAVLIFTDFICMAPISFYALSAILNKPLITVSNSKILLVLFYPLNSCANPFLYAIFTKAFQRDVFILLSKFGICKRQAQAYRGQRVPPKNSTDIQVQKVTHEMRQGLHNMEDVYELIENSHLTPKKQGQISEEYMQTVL
# In short: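 Screening of the Tox21 10K collection used HEK293 cells engineered with TSHR at 800 cells per well. After a 30-min room-temperature compound exposure, HTRF cAMP reagents were added and fluorescence recorded 1 h later.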
# [10] = qHTS assay to identify small molecule agonists of the hypoxia (HIF-1) signaling pathway (AID 1224846; active means well fitted activation curve with a large enough effect in the signal ratio in the repeat runs, not every such curve was filed as active; inconclusive means weak or mixed curves; the % refers to the signal ratio; further: potency means the concentration at half of the fitted maximal effect); conditions: HRE-bla ME-180 cells, beta-lactamase ratio, 17 h; activation: at 76.8 µM (top of the series) unless noted
# In short: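 HRE-bla ME-180 beta-lactamase reporter cells in medium with 0.5% dialyzed FBS, pre-incubated 5 h then exposed to compounds 17 h at 37C, 5% CO2; reporter induction read with CCF4-AM FRET substrate.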
# [11] = target: Nuclear receptor subfamily 1 group I member 3 (Homo sapiens) (UniProt Q14994); test: qHTS assay to identify small molecule agonists of the constitutive androstane receptor (CAR) signaling pathway (AID 1224839); further: potency means the concentration at half of the fitted maximal effect; nearly all actives have a fitted effect of over 15% in size
# In short: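 Using human hepatoma HepG2 cells engineered with hCAR and a CYP2B6-2.2kb reporter, 15-concentration compound series were incubated 24 h alongside PK11195 at 0.75 uM final, with luminescence quantified afterwards.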
# [12] = qHTS RealTime-Glo MT Cell Viability Assay in HEK293 cells - 32 hour (AID 1224868); further: potency means the concentration at half of the fitted maximal effect; nearly all actives have a fitted effect of over 50% in size
# In short: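 Luminescence generated by NanoLuc from substrate produced by living HEK293 cells served as the viability signal. Each value reflects the reading at its stated time point during continuous 40 h compound exposure at 37 C.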
# [13] = qHTS assay to identify small molecule antagonists of the estrogen related receptor signaling pathway with the pleiotropic PPARgamma coactivator (PGC) from Tox21 10K library - cell viability counter screen (AID 1224840; active means well fitted cell-killing curve with a large enough effect in the repeat runs, not every such curve was filed as active; inconclusive means weak or mixed curves, or effect the other way; inactive means no such curve, though single readings can be large or run the other way; further: potency means the concentration at half of the fitted maximal effect; nearly all actives have a fitted effect of over 40% in size)
# In short: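 PGC/ERR cells (2,000/well) plated 6 h, then compound-treated for 17.5 h at 37 C. Viability measured by CellTiter-Fluor fluorescence after 30 min at 37 C, multiplexed with the pathway assay.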
# [14] = qHTS assay to identify small molecule antagonists of the estrogen related receptor signaling pathway with the pleiotropic PPARgamma coactivator (PGC) from Tox21 10K library (AID 1224841; call rule not given here)
# In short: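 PGC/ERR cell line, 2,000 cells/well, pre-incubated 6 hours at 37 C, then exposed to compounds for 18 hours at 37 C; luciferase read with One-Glo luminescence after 30 min at room temperature.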
# Tags describe the fitted curve by direction and shape or compound fluorescence and quenching.
structure (smiles),measurement,setting,value
O[C@@H](c1cc(C(F)(F)F)nc2c(C(F)(F)F)cccc12)[C@H]1CCCCN1,Potency,[1],active: 29.8 µM
same,Potency,[2],"inconclusive: 33.5 µM [inhibitor, single point]"
same,Potency,[3],inconclusive: 23.9 µM [cytotoxic]
same,Potency,[4],inconclusive: 55.2 µM [activator]
same,Potency,[5],"inconclusive: 55.2 µM [cytotoxic, single point]"
same,Potency,[6],"inconclusive: 33.5 µM [inhibitor, single point]"
same,Potency,[7],active: 16.9 µM
CCCCCCCCCCCCCCCC[N+](C)(C)CC,Potency,[1],"inconclusive: 27.4 µM [cytotoxic, partial curve] and inconclusive: 29.8 µM [cytotoxic, partial curve, poor fit]"
same,Potency,[8],"inconclusive: 27.4 µM [cytotoxic, partial curve] and inconclusive: 26.6 µM [cytotoxic, partial curve]"
same,activation,[9],inconclusive: 28.9%
same,Potency,[3],"inconclusive: 61.8 µM [cytotoxic, single point]"
same,activation (H2AX phosphorylation),[4],inconclusive: -9.49%
same,Potency,[10],inconclusive: 55.1 µM and inconclusive: 26.8 µM
same,Potency,[5],active: 101 µM and active: 49.2 µM
CCCN[C@H]1CCc2nc(N)sc2C1,Potency,[1],"inconclusive: 13.3 µM [rising, single point]"
same,Potency,[11],"inconclusive: 13.3 µM [activator, single point]"
same,Potency,[12],"inconclusive: 26.4 µM [cytotoxic, partial curve]"
Cc1c(C)c2c(c(C)c1OC(=O)CCC(=O)OCCO)CC[C@@](C)(CCC[C@H](C)CCC[C@H](C)CCCC(C)C)O2,Potency,[1],"inconclusive: 66.8 µM [cytotoxic, partial curve, poor fit]"
same,Potency,[8],"inconclusive: 6.68 µM [cytotoxic, full curve, poor fit]"
same,Potency,[13],"inconclusive: 33.5 µM [cytotoxic, single point]"
same,Potency,[6],inconclusive: 13.3 µM [inhibitor]
CO[C@H]1C=CO[C@@]2(C)Oc3c(C)c(O)c4c(O)c(c(/C=N/N5CCN(C)CC5)c(O)c4c3C2=O)NC(=O)/C(C)=C\C=C[C@H](C)[C@H](O)[C@@H](C)[C@@H](O)[C@@H](C)[C@H](OC(C)=O)[C@@H]1C,Potency,[1],"active: 27.4 µM and inconclusive: 19.6 µM [cytotoxic, partial curve] and inconclusive: 13.3 µM [cytotoxic, partial curve]"
same,Potency,[8],"active: 30.8 µM and inconclusive: 27.6 µM [cytotoxic, partial curve] and inconclusive: 13.3 µM [cytotoxic, partial curve]"
same,activation,[9],inconclusive: 3.96%
same,Potency,[4],"inconclusive: 45.3 µM [cytotoxic, partial curve] and inconclusive: 28.7 µM [cytotoxic, partial curve] and inconclusive: 43.8 µM [cytotoxic, partial curve]"
same,Potency,[5],"inconclusive: 128 µM [cytotoxic, single point]"
same,Potency,[6],"inconclusive: 27.6 µM [inhibitor, partial curve]"
same,Potency,[7],"inconclusive: 49.3 µM [falling, partial curve] and inconclusive: 24.8 µM [falling, partial curve]"
same,Potency,[12],"inconclusive: 23.9 µM [cytotoxic, partial curve]"
COc1ccc2cc1Oc1ccc(cc1)C[C@H]1c3c(cc4c(c3Oc3cc5c(cc3OC)CCN(C)[C@@H]5C2)OCO4)CCN1C,Potency,[1],active: 26.6 µM
same,Potency,[8],active: 23.7 µM
same,Potency,[13],active: 21.1 µM
same,Potency,[14],"inconclusive: 13.3 µM [falling, partial curve, poor fit]"
same,Potency,[4],"inconclusive: 55.2 µM [activator, single point]"
same,Potency,[10],"inconclusive: 6.01 µM [fluorescent, partial curve]"
same,Potency,[6],active: 29.8 µM
same,Potency,[7],active: 23.9 µM
C=CCCC(=O)/C=C/C1C(C)=CCCC1(C)C (stereo not given),Potency,[1],inactive
same,Potency,[11],"inconclusive: 43.3 µM [activator, partial curve, poor fit]"
same,Potency,[3],"inconclusive: 49 µM [cytotoxic, partial curve, poor fit]"
same,Potency,[4],"inconclusive: 127 µM [activator, single point]"
same,Potency,[5],active: 89.8 µM
CCCCCCCCCCCCOCCOCCOCCOCCOCCOCCOCCOCCOCCO,Potency,[1],"inconclusive: 23.7 µM [cytotoxic, partial curve]"
same,Potency,[8],"inconclusive: 23.7 µM [cytotoxic, partial curve]"
same,Potency,[13],"inconclusive: 33.5 µM [cytotoxic, partial curve]"
same,activation,[9],inconclusive: -14.7% [at 42.5 µM]
same,Potency,[3],"inconclusive: 26.8 µM [cytotoxic, single point]"
same,Potency,[10],"inconclusive: 26.8 µM [falling, partial curve, poor fit]"
same,Potency,[7],"inconclusive: 21.3 µM [falling, partial curve]"
CCCCOc1ccc(CC(=O)NO)cc1,Potency,[1],"inconclusive: 29.8 µM [cytotoxic, partial curve]"
same,Potency,[8],"inconclusive: 37.6 µM [cytotoxic, partial curve, poor fit]"
same,activation,[9],inconclusive: 20.6% [at 42.5 µM]
same,Potency,[3],"inconclusive: 15.1 µM [cytotoxic, partial curve, poor fit]"
same,Potency,[4],inconclusive: 55.2 µM [activator]
same,Potency,[12],"inconclusive: 3.01 µM [cytotoxic, partial curve, poor fit]"
